Reference: patent US20220242946A1 (Johns Hopkins, published 2022)

Target: T1, biotinylated human IL-2Rα extracellular domain (residues 1-214) (human, UniProt P01589 22-240, biotinylated on the C-terminal biotin acceptor peptide with BirA ligase)
T1 construct: extracellular domain; also called hIL-2Rα; immobilized IL-2Rα; not shown: hexahistidine tag (Ni-NTA purification)
T1 sequence: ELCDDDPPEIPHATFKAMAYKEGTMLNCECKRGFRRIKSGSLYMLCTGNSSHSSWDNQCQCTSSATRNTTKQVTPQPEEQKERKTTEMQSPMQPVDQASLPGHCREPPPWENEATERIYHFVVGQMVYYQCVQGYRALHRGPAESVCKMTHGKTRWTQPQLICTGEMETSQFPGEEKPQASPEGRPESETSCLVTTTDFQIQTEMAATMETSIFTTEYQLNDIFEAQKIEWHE
Assay: bio-layer interferometry equilibrium titration, biotinylated IL-2Rα on streptavidin tips
Procedure: Less than 5 signal units (nm) of receptor was immobilized to minimize mass transfer effects. […] Surface regeneration for all interactions was conducted using a 15 second exposure to 0.1 M glycine pH 3.0. Experiments were carried out in PB SA (phosphate-buffered saline, pH 7.3 plus 0.1% bovine serum albumin (BSA, Thermo Fisher Scientific)) at 25° C. Data was visualized and processed using the Octet® Data Analysis software version 7.1 (Molecular Devices). Equilibrium titration curve fitting and KD value determination was implemented using GraphPad Prism, assuming all binding interactions to be first order.

B1: F5111 IC LN15 (hIL-2 fused by a (Gly4Ser)3 linker to the N-terminus of the F5111 light chain) (other)
heavy: QLQLQESGPGLVKPSQTLSLTCTVSGGSISSGGYYWSWIRQHPGKGLEWIGYIYYSGSTYYNPSLKSRVTISVDTSKNQFSLKLSSVTAADTAVYYCARTPTVTGDWFDPWGRGTLVTVSS[here human IgG1 constant region without letters]
light: [here about 150 residues without letters]GGGGSGGGGSGGGGSNFMLTQPHSVSESPGKTVTISCTRSSGSIASNYVQWYQQRPGSSPTTVIYEDNQRPSGVPDRFSGSIDSSSNSASLTISGLKTEDEADYYCQSYDSSNVVFGGGTKLTVLGQPKAAPSVTLFPPSSEELQANKATLVCLISDFYPGAVTVAWKADSSPVKAGVETTTPSKQSNNKYAASSYLSLTPEQWKSHRSYSCQVTHEGSTVEKTVAPTECS
notes: Antibody-cytokine fusion (immunocytokine); also called F5111 immunocytokine LN15; single-chain IL-2/F5111 IC
- EC50 (read off the curve): ~6 nM
